Laboratory results: a collection of fitness landscapes (doi:10.1016/j.celrep.2020.107928)
The full ranking holds about 81,000 sequences; the median of “one-hybrid fitness for binding NBS DNA” is about -0.1, and the highest 2% start at about 0.36. The list shows a part of the results.

B1: Caulobacter ParB omega fusion; a variant is named by its letters at X, in order, B8GW30 (parent)
chain: MESVVVGEPGMSEGRRGLGRGLSALLGEVDAAPAQAPGEQLGGSREAPIEILQRNPDQPRRTFREEDLEDLSNSIREKGVLQPILVRPSPDTAGEYQIVAGERAWRAAQRAGLKTVPIMVRELDDLAVLEIGIIENVQRADLNVLEEALSYKVLMEKFERTQENIAQTIGKSXSHVANXMRLLXLPDEVQSYLVSGELTAXHARAIAAAADPVALAKQIIEGGLSVRETEALARKAPNLSAGKSKGGRPPRVKDTDTQALESDLSSVLGLDVSIDHRGSTGTLTITYATLEQLDDLCNRLTRGI

Variants of: B1
Assay: one-hybrid fitness for binding NBS DNA (the Noc-binding site; scaled: cognate 1, non-cognate 0); higher = stronger binding
Settings: with NBS DNA site
In short: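 Selection: bacterial one-hybrid in E. coli USO, HIS3 reporter with the site 19 bp from the promoter, 48 hours at 37°C on M9-minus-histidine plus 0.1 mM IPTG and 5 mM 3-AT. Libraries were Caulobacter ParB with four randomised specificity codons, sequenced on Illumina before and after selection. Fitness is the rescaled log change in variant-to-wild-type read ratio, anchored to the cognate and non-cognate sites.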

Variant | one-hybrid fitness for binding NBS DNA
ANMR | ≤ 0.2
LSEL | ≤ 0.2
KSQR | ≤ 0.2
RDSS | ≤ 0.2
YKCR | ≤ 0.2
YTVE | ≤ 0.2
SYLN | ≤ 0.2
TPPQ | ≤ 0.2
LVLK | ≤ 0.2
TYFR | ≤ 0.2
TQGQ | ≤ 0.2
ENKL | ≤ 0.2
KTCL | ≤ 0.2
AQEL | ≤ 0.2
DIMR | ≤ 0.2
TQDR | ≤ 0.2
TNNS | ≤ 0.2
KPNS | ≤ 0.2
RWQN | ≤ 0.2
PVMY | ≤ 0.2
MGVV | ≤ 0.2
SSYP | ≤ 0.2
RHLH | ≤ 0.2
ESNL | ≤ 0.2
LAQR | ≤ 0.2
QYHI | ≤ 0.2

Variant | one-hybrid fitness for binding NBS DNA
KRQS | 0.443
TCTH | ≤ 0.2
VKDE | ≤ 0.2
ARVS | ≤ 0.2
QMLM | ≤ 0.2
GTIL | ≤ 0.2
RRTA | 0.619
WKQS | ≤ 0.2
LALI | ≤ 0.2
RQGW | ≤ 0.2
KYLS | ≤ 0.2
KKWY | ≤ 0.2
AETM | ≤ 0.2
RACY | ≤ 0.2
TYKS | ≤ 0.2
QVFV | ≤ 0.2
TYDN | ≤ 0.2
ERAM | 0.249
WSVS | ≤ 0.2
WHAS | ≤ 0.2
NYDV | ≤ 0.2
IHCR | ≤ 0.2
PPFE | ≤ 0.2
YLCL | ≤ 0.2
ADHW | ≤ 0.2
RNSG | ≤ 0.2

Variant | one-hybrid fitness for binding NBS DNA
DWVY | ≤ 0.2
AHHM | ≤ 0.2
HSCP | ≤ 0.2
FNPH | ≤ 0.2
EQQG | ≤ 0.2
GRLN | ≤ 0.2
IIPT | ≤ 0.2
EYST | ≤ 0.2
SLRS | ≤ 0.2
QQSL | ≤ 0.2
WTNW | ≤ 0.2
RDCT | ≤ 0.2
CALI | ≤ 0.2
PNTM | ≤ 0.2
AREP | ≤ 0.2
LSWR | ≤ 0.2
YHYF | ≤ 0.2
RMYW | ≤ 0.2
LCAV | ≤ 0.2
TLMP | ≤ 0.2
PWNM | ≤ 0.2
LIPC | ≤ 0.2
SKWG | ≤ 0.2
SYTA | ≤ 0.2
MAVH | ≤ 0.2
ETAR | ≤ 0.2

Variant | one-hybrid fitness for binding NBS DNA
ATSS | ≤ 0.2
GDQS | ≤ 0.2
IAKY | ≤ 0.2
WTIG | ≤ 0.2
CRSN | ≤ 0.2
HWRS | ≤ 0.2
CDIR | ≤ 0.2
RGFG | ≤ 0.2
AIHY | ≤ 0.2
RIMC | ≤ 0.2
RQKM | 0.201
VSDS | ≤ 0.2
WAKD | ≤ 0.2
GDFS | ≤ 0.2
IRAT | 0.244
GNQN | ≤ 0.2
EPDC | ≤ 0.2
QCLT | 0.487
LMDV | ≤ 0.2
WPAN | ≤ 0.2
CWYR | ≤ 0.2
VWQD | ≤ 0.2
NTRA | ≤ 0.2
KSAI | ≤ 0.2
ESDG | ≤ 0.2
MVLY | ≤ 0.2

Variant | one-hybrid fitness for binding NBS DNA
RGGT | ≤ 0.2
YRKT | 0.288
EMAG | ≤ 0.2
GPCF | ≤ 0.2
SWIR | ≤ 0.2
GNKI | ≤ 0.2
AHKN | ≤ 0.2
QINR | 0.479
KWEG | ≤ 0.2
GQLR | ≤ 0.2
SNTR | ≤ 0.2
GEGS | ≤ 0.2
VCPP | ≤ 0.2
KVPT | ≤ 0.2
GCPN | ≤ 0.2
PKNA | ≤ 0.2
GLPM | ≤ 0.2
IISY | ≤ 0.2
PPPH | ≤ 0.2
PAEM | ≤ 0.2
EMTT | ≤ 0.2
GRCM | ≤ 0.2
SGVD | ≤ 0.2
RRWM | 0.23
QMIY | ≤ 0.2
KLAC | ≤ 0.2

Variant | one-hybrid fitness for binding NBS DNA
EIGT | ≤ 0.2
SLPF | ≤ 0.2
WVES | ≤ 0.2
AETR | ≤ 0.2
RIHK | ≤ 0.2
DTKG | ≤ 0.2
LVSK | ≤ 0.2
HQHR | ≤ 0.2
RNAQ | ≤ 0.2
QKHM | ≤ 0.2
EGMT | ≤ 0.2
WIQG | ≤ 0.2
TMAV | ≤ 0.2
RANC | ≤ 0.2
ASVI | ≤ 0.2
MTHL | ≤ 0.2
SYLR | ≤ 0.2
RSPS | ≤ 0.2
KASC | ≤ 0.2
DAYC | ≤ 0.2
HAVC | ≤ 0.2
FPQN | ≤ 0.2
EGAG | ≤ 0.2
